The text below walks through data of the antibiotic and cytotoxicity screens of Wong et al. (2023).

One test has as its system HSkMC. The experiment in a line: cytotoxicity call (relative viability < 0.9). The following applies: 10 µM.
The subject of another test is HepG2. The experiment in a line: cytotoxicity call (relative viability < 0.9). The following applies: 10 µM.
Another test relates to S. aureus RN4220. Briefly: growth inhibition call (relative growth <= 0.2). The following applies: 50 µM.

SMILES strings stand for the structures. Some of the results follow.

As to `C[C@H]1CCCN(C(=O)CCNS(=O)(=O)c2ccc3c(c2)c(=O)n(C)c(=O)n3C)C1`, the cytotoxicity call in the test with HSkMC is “inactive”. Also, the cytotoxicity call in the test with HepG2 is “active”. In addition, the growth inhibition call in the test with S. aureus RN4220 was “inactive”.
Turning to `O=C(C[C@@H]1C[C@@H]2c3cc(NC(=O)c4cccnc4)ccc3O[C@@H]2[C@@H](CO)O1)NCc1cc(F)ccc1F`, the cytotoxicity call in the test with HSkMC and with HepG2 was “inactive” each time. The growth inhibition call with S. aureus RN4220 was “inactive”.
`Cn1cc(C[C@@H](N)C(=O)O)c2ccccc21`: the cytotoxicity call with HSkMC and in the test on HepG2 was “inactive” in each case. In the test on S. aureus RN4220, the growth inhibition call is “inactive”.
On to `COc1ccc(CN(C)C[C@@H]2OCCCC[C@@H](C)Oc3ccc(NS(=O)(=O)c4ccc(C)cc4)cc3C(=O)N([C@@H](C)CO)C[C@H]2C)cc1`, for which the cytotoxicity call in the test with HSkMC and in the test with HepG2 was “inactive” each time. The growth inhibition call with S. aureus RN4220 is “inactive”.
In the case of `C[C@@H]1CCCCO[C@H](CN(C)S(=O)(=O)c2ccc(Cl)cc2)[C@@H](C)CN([C@@H](C)CO)C(=O)c2cc(NC(=O)Cc3ccccc3)ccc2O1`, the cytotoxicity call in the test with HSkMC and in the test on HepG2 was “inactive” throughout. The growth inhibition call with S. aureus RN4220 was “inactive”.
Turning to `C[C@H]1CN([C@@H](C)CO)C(=O)c2cc(NC(=O)CCN3CCOCC3)ccc2O[C@@H]1CN(C)S(=O)(=O)c1cccs1`, the cytotoxicity call in the test on HSkMC and in the test with HepG2 was “inactive” in each case. Also, the growth inhibition call with S. aureus RN4220 was “inactive”.
As to `CC(=O)N1[C@@H]2Cn3c(ccc(-c4ccccc4)c3=O)[C@H]1[C@@H](C(=O)NCCCN1CCOCC1)[C@@H]2CO`, the cytotoxicity call with HSkMC and in the test on HepG2 was “inactive” in each case. Besides, the growth inhibition call with S. aureus RN4220 was “inactive”.
As for `C[C@H](CO)N1C[C@H](C)[C@@H](CN(C)Cc2ccc(C(=O)Nc3ccccc3N)cc2)Oc2c(NS(C)(=O)=O)cccc2C1=O`, the cytotoxicity call in the test on HSkMC (human skeletal muscle cells) and with HepG2 was “inactive” in each case. The growth inhibition call with S. aureus RN4220 was “inactive”.
Consider `CO[C@@H]1CN(C)C(=O)c2ccc(NS(C)(=O)=O)cc2OC[C@@H](C)N(C(=O)C2CCOCC2)C[C@H]1C`, for which the cytotoxicity call in the test with HSkMC and in the test with HepG2 was “inactive” in each case. Moreover, in the test on S. aureus RN4220, the growth inhibition call was “inactive”.
On to `COc1cccc(S(=O)(=O)N(C)C[C@@H]2Oc3cc(C#CCN(C)C)ccc3S(=O)(=O)N([C@@H](C)CO)C[C@@H]2C)c1`, for which the cytotoxicity call in the test with HSkMC and with HepG2 was “inactive” in each case. For the same compound, in the test with S. aureus RN4220, the growth inhibition call is “inactive”.
Regarding `C[C@@H]1CN([C@H](C)CO)S(=O)(=O)c2ccc(C#CC3CC3)cc2O[C@@H]1CN(C)Cc1ccccc1F`, the cytotoxicity call in the test with HSkMC and in the test on HepG2 was “inactive” in each case. The growth inhibition call in the test on S. aureus RN4220 was “inactive”.
As for `CSc1ccc(-c2nnn(CC(N)=O)n2)cc1`, the cytotoxicity call in the test with HSkMC and in the test with HepG2 was “inactive” each time. Besides, the growth inhibition call in the test with S. aureus RN4220 is “inactive”.
Regarding `N[C@H](Cc1cnc[nH]1)C(=O)O`, the cytotoxicity call with HSkMC and with HepG2 was “inactive” throughout. In addition, the growth inhibition call in the test on S. aureus RN4220 was “inactive”.
